From PubChem BioAssay AID1345083 (National Center for Advancing Translational Sciences (NCATS), 2018)
The whole screen tested about 94,000 compounds, of which about 6,200 (6.6%) were called active. This list was built around the results that the source calls inconclusive (neither active nor inactive); the mix of calls is not that of the screen. The call rests on the fitted dose curve; in most records, active means well fitted inhibition curve with a large enough effect; inconclusive means small, poorly fitted or top-dose-only effect; inactive means flat fitted curve, though single readings scatter. Potencies beside an inconclusive call are fits to weak or partial responses and may not hold up.

Assay: Cytotoxic Profiling in HEK 293 Cell Line of Diverse Libraries Using Quantitative High-Throughput Screening; further: nearly all actives have a fitted effect of over 60% in size
Conditions: HEK 293 viability, ATP luminescence (CellTiter-Glo), 48-72 h; series mostly up to 115 µM
In short: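 Read-out: CellTiter-Glo ATP luminescence. Cells: HEK 293, 250 cells/well. Exposure: 48 or 72 hr, 37 degree Celsius.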
Potency means the concentration at half of the fitted maximal effect; tags describe the fitted curve by direction and shape.

Row | SMILES | Potency
1 | Cn1ccnc1CN[C@@H]1CO[C@H](CNC(=O)CC(C)(C)C)[C@H]1O | inactive
2 | N#Cc1cccc(CN2CCOC[C@H]2c2ncc(-c3ccc(C(F)(F)F)cc3)[nH]2)c1 | active: 89.1 µM
3 | OCCN1CCN(c2ccc(-c3nc(-c4cccc(C(F)(F)F)c4)no3)cn2)CC1 | inconclusive: 17.8 µM [inhibitor, full curve, poor fit]
4 | Cc1ccccc1-c1[nH]nc2ncc(-c3cccc(F)c3)nc12 | active: 63.1 µM
5 | c1ccc(-c2ccnc3nc(C4CC4)nn23)cc1 | inactive
6 | CC1(CNc2ccccc2)COc2ccc(C(=O)Nc3ccc4[nH]ccc4c3)cc2N1 (stereo unspecified) | inconclusive: 39.8 µM [inhibitor, partial curve, poor fit]
7 | Cc1cc2nc3n(c(=O)c2n1CC(=O)Nc1ccc(F)c(Cl)c1)CCCCC3 | inconclusive: 79.4 µM [inhibitor, single point]
8 | COc1cc(-c2onc(C)c2C(=O)NCCCCc2ccccc2)cc(OC)c1OC | active: 89.1 µM
9 | COc1ccccc1CCN1Cc2cc(NC(=O)Cc3cccs3)ccc2OC(C)C1=O (stereo unspecified) | inconclusive: 63.1 µM [inhibitor, partial curve, poor fit]
10 | O=C(C1CCN(c2nccc(Nc3ccccc3Cl)n2)CC1)N1CCCCC1 | inconclusive: 35.5 µM [inhibitor, partial curve, poor fit]
11 | O=C(CCCc1nc2ccccc2s1)N1CCc2nc3cc(-c4ccccc4)[nH]n3c(=O)c2C1 | inconclusive: 89.1 µM [inhibitor, single point]
12 | COc1ccccc1Cn1c(=O)c(C(=O)N(C)C)nc2cccnc21 | inactive
13 | CNC(=O)c1cc(-c2ccnc(NC(C)=O)c2)cc2c1OCCN2Cc1cccnc1 | inconclusive: 50.1 µM [inhibitor, partial curve, poor fit]
14 | Cc1ccc(CNC(=O)c2ccc3c(c2)CN(Cc2ccc(C)o2)CCO3)cc1 | inconclusive: 56.2 µM [inhibitor, partial curve, poor fit]
15 | COCC1CN(C2CCC2)CC12CCN(Cc1cccc(OC)c1OC)CC2 (stereo unspecified) | active: 44.7 µM
16 | O=C(c1ccccc1F)N1CCC2(CC1)CC(N(Cc1ccccc1)C1CC1)CCO2 (stereo unspecified) | inconclusive: 35.5 µM [inhibitor, partial curve]
17 | COc1cccc(N2C(=O)NC(=NC3CCCCC3)C23CCN(C(=O)c2ccc(C(F)(F)F)cc2)CC3)c1 | inactive
18 | O=C(Nc1ccc2c(c1)OCO2)C1CC(=O)N(c2n[nH]c3cc(Br)ccc23)C1 (stereo unspecified) | inconclusive: 89.1 µM [inhibitor, single point]
19 | CN(C)C[C@@H]1CN(S(C)(=O)=O)C[C@H]1NC(=O)CCc1ccccc1 | inactive
20 | C#CCNC(=O)C1CCCCN1Cc1ccc(-c2cccs2)cc1 (stereo unspecified) | inconclusive: 39.8 µM [inhibitor, partial curve, poor fit]
21 | CCc1ccc(NC(=O)Cn2c(N3CCC(C)CC3)nc(C)cc2=O)cc1 | active: 44.7 µM

Row | SMILES | Potency
22 | c1ccc(-c2nc3c(c(NCC4OCCc5ccccc54)n2)CCNCC3)nc1 (stereo unspecified) | inconclusive: 56.2 µM [inhibitor, partial curve, poor fit]
23 | COc1cc(CNC(=O)c2ccc3c(c2)NC(C)(CNc2ccccc2)CO3)cc(OC)c1 (stereo unspecified) | active: 35.5 µM
24 | COCC1CN(S(=O)(=O)c2ccc(F)c(Cl)c2)CC12CCNCC2 (stereo unspecified) | inconclusive: 79.4 µM [inhibitor, partial curve]
25 | O=C(Cc1ccccn1)N1CCCC(C(=O)N2CCC(N3CCCC3=O)CC2)C1 (stereo unspecified) | inactive
26 | O=C(Cc1ccsc1)N1CCC(n2cc(-c3nc(-c4ccccc4)no3)nn2)CC1 | inconclusive: 50.1 µM [inhibitor, partial curve, poor fit]
27 | CCC(CC)C(=O)N1CCC2(CC1)C(=O)N(C)c1ccccc12 | inconclusive: 50.1 µM [inhibitor, partial curve, poor fit]
28 | CCc1c(C)nn(CCNC(=O)c2cc(S(N)(=O)=O)ccc2F)c1C | inactive
29 | Cc1cc(C)cc(NC(=O)Cn2c(-c3cnccn3)nc(C)c(C)c2=O)c1 | inconclusive: 79.4 µM [inhibitor, partial curve, poor fit]
30 | Cc1cc(Cl)ccc1S(=O)(=O)N1CCCC(Cn2c(C)nc3cccnc32)C1 (stereo unspecified) | active: 20 µM
31 | Cc1nc(C2CC(O)C2)cc(N2CCN(c3nc4ccccc4s3)CC2)n1 (stereo unspecified) | inconclusive: 20 µM [inhibitor, full curve, poor fit]
32 | COc1ccc(CCNC(=O)c2cc(-c3cccc(F)c3)nc3c2cnn3C)cc1 | inconclusive: 31.6 µM [inhibitor, partial curve, poor fit]
33 | O=C1OC2(CN1CC1CCOCC1)CN(C(=O)c1ccc(Oc3ccccc3)cc1)C2 | inconclusive: 89.1 µM [inhibitor, partial curve, poor fit]
34 | COCCN1C(=O)[C@H]2CN(Cc3ccc(C(C)C)cc3)C[C@H]2C1=O | inconclusive: 44.7 µM [inhibitor, partial curve]
35 | O=S(=O)(c1ccccc1)N1CCC(c2nc(CCOCC3CC3)no2)C1 (stereo unspecified) | inactive
36 | Cn1cc(C(=O)NCC2CN(C(=O)c3cc4ccccc4n3C)CC23CN(c2ccccc2)C3)cn1 (stereo unspecified) | inconclusive: 89.1 µM [inhibitor, single point]
37 | COc1ccc(-c2nn(-c3ccccc3C)cc2CN2CCN(C)C(=O)[C@@H]2C)cc1F | inconclusive: 89.1 µM [inhibitor, single point]
38 | CC(C)(O)C#Cc1ccc(CN2CC[C@@H](c3ccc(F)cc3)[C@H](O)C2)s1 | inconclusive: 56.2 µM [inhibitor, partial curve, poor fit]
39 | Cc1ccccc1C(=O)N1CCC2(CC1)N=C(c1ccc(Br)cc1)NO2 | inconclusive: 50.1 µM [inhibitor, partial curve, poor fit]
40 | COc1cc(CN2CCC(C)(NC(C)=O)CC2)cc(-c2ccc3[nH]ncc3c2)c1 | inconclusive: 100 µM [inhibitor, partial curve]
41 | CC(C)(C)CN[C@@H]1CO[C@H](CNS(=O)(=O)c2ccccc2)[C@H]1O | inactive
